# Measured values from the supplement of paper PMC10037445.
# Whole data set: some 2,900 compounds, median “NF-kB SEAP reporter activity, fold change vs agonist alone” near 0.99, cut for the highest 2% near 2.6. Some of the results follow.
# How the values were obtained:
# RAW-Dual [1] = experiment: NF-kB SEAP reporter activity, fold change vs agonist alone; higher = enhanced NF-kB activity
# Outline: (§1)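 Cytotoxic wells were those whose IncuCyte confluency was below 70% of agonist controls in both mask sets. The cells were RAW-Dual macrophages at 50,000 cells/well in DMEM on 384-well plates, dosed with 50 nL of library stock by pin tool, stimulated with a PRR agonist 1 h later, and kept at 37 °C, 5% CO2 for 20 hours. IRF and NF-κB reporter activity, as fold change over agonist-alone wells, came from supernatant read by QuantiLuc luminescence and QuantiBlue absorbance, respectively.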
# RAW-Dual [2] = experiment: NF-kB SEAP reporter activity, fold change vs agonist alone; cytotoxicity flag (confluency mask): not cytotoxic; higher = enhanced NF-kB activity
# Outline: as §1
# RAW-Dual [3] = experiment: NF-kB SEAP reporter activity, fold change vs agonist alone; cytotoxicity flag (confluency mask): cytotoxic (confluency <70% of control); higher = enhanced NF-kB activity
# Outline: as §1
# [4] = library stock concentration (final ~1000-fold dilution): 10 mM, cytotoxicity flag (confluency mask): not cytotoxic, agonist: Imiquimod (TLR7) […]
# [5] = library stock concentration (final ~1000-fold dilution): 10 mM, cytotoxicity flag (confluency mask): not cytotoxic, agonist: MPLA (TLR4) […]
# [6] = agonist: ODN 1826 (TLR9) 0.5 ug/mL
# [7] = agonist: Pam2CSK4 (TLR2/6) 0.1 ug/mL
# [8] = agonist: Pam3CSK4 (TLR2/1) 0.1 ug/mL
# [9] = library stock concentration (final ~1000-fold dilution): 10 mM, cytotoxicity flag (confluency mask): cytotoxic (confluency <70% of control), agonist: Imiquimod (TLR7) […]
# [10] = library stock concentration (final ~1000-fold dilution): 10 mM, cytotoxicity flag (confluency mask): cytotoxic (confluency <70% of control), agonist: MPLA (TLR4) […]
smiles,measurement,setting,value
CS(=O)(=O)Nc1ccc([N+](=O)[O-])cc1Oc1ccccc1,NF-kB SEAP reporter activity,RAW-Dual [1]; [4],0.516
same,NF-kB SEAP reporter activity,RAW-Dual [1]; [5],1.08
COc1cc(NC(=O)c2ccc(-c3ccc(Cl)cc3)o2)cc(OC)c1,NF-kB SEAP reporter activity,RAW-Dual [1]; [4],0.985
same,NF-kB SEAP reporter activity,RAW-Dual [1]; [5],1.02
COc1cc(NC(=O)c2ccc(-c3ccc(Cl)cc3)o2)cc(OC)c1 (library stock concentration (final ~1000-fold dilution): 10 mM),NF-kB SEAP reporter activity,RAW-Dual [2]; agonist: LPS (TLR4) 0.1 ug/mL,1.49
same,NF-kB SEAP reporter activity,RAW-Dual [2]; [6],1.14
same,NF-kB SEAP reporter activity,RAW-Dual [2]; [7],1.21
same,NF-kB SEAP reporter activity,RAW-Dual [2]; [8],1.01
COc1cc2nccc(Oc3ccc(NC(=O)Nc4ccc(F)cc4F)c(F)c3)c2cc1OC (library stock concentration (final ~1000-fold dilution): 10 mM),NF-kB SEAP reporter activity,RAW-Dual [3]; agonist: LPS (TLR4) 0.1 ug/mL,0.806
same,NF-kB SEAP reporter activity,RAW-Dual [3]; [6],0.587
same,NF-kB SEAP reporter activity,RAW-Dual [3]; [7],0.463
same,NF-kB SEAP reporter activity,RAW-Dual [3]; [8],0.717
COc1cc2nccc(Oc3ccc(NC(=O)Nc4ccc(F)cc4F)c(F)c3)c2cc1OC,NF-kB SEAP reporter activity,RAW-Dual [1]; [9],0.799
same,NF-kB SEAP reporter activity,RAW-Dual [1]; [10],0.975
Cl.Cl.OC(CN1CCN(c2cccc(Cl)c2)CC1)C(c1ccccc1)c1ccccc1 (stereo unspecified),NF-kB SEAP reporter activity,RAW-Dual [1]; [4],1.33
same,NF-kB SEAP reporter activity,RAW-Dual [1]; [5],1.04
Cl.Cl.OC(CN1CCN(c2cccc(Cl)c2)CC1)C(c1ccccc1)c1ccccc1 (stereo unspecified) (library stock concentration (final ~1000-fold dilution): 10 mM),NF-kB SEAP reporter activity,RAW-Dual [2]; agonist: LPS (TLR4) 0.1 ug/mL,0.841
same,NF-kB SEAP reporter activity,RAW-Dual [2]; [6],1.02
same,NF-kB SEAP reporter activity,RAW-Dual [2]; [7],0.761
same,NF-kB SEAP reporter activity,RAW-Dual [2]; [8],0.956
Cc1nc(Nc2ncc(C(=O)Nc3c(C)cccc3Cl)s2)cc(N2CCN(CCO)CC2)n1.O (library stock concentration (final ~1000-fold dilution): 10 mM),NF-kB SEAP reporter activity,RAW-Dual [2]; agonist: LPS (TLR4) 0.1 ug/mL,1.33
same,NF-kB SEAP reporter activity,RAW-Dual [2]; [6],0.661
same,NF-kB SEAP reporter activity,RAW-Dual [2]; [7],0.283
same,NF-kB SEAP reporter activity,RAW-Dual [2]; [8],0.215
Cc1nc(Nc2ncc(C(=O)Nc3c(C)cccc3Cl)s2)cc(N2CCN(CCO)CC2)n1.O,NF-kB SEAP reporter activity,RAW-Dual [1]; [4],0.326
same,NF-kB SEAP reporter activity,RAW-Dual [1]; [5],0.715
Cc1ccc(C(=O)O)c(O)c1,NF-kB SEAP reporter activity,RAW-Dual [1]; [4],0.973
same,NF-kB SEAP reporter activity,RAW-Dual [1]; [5],1.05
Cc1ccc(C(=O)O)c(O)c1 (library stock concentration (final ~1000-fold dilution): 10 mM),NF-kB SEAP reporter activity,RAW-Dual [2]; agonist: LPS (TLR4) 0.1 ug/mL,0.77
same,NF-kB SEAP reporter activity,RAW-Dual [2]; [6],0.99
same,NF-kB SEAP reporter activity,RAW-Dual [2]; [7],0.948
same,NF-kB SEAP reporter activity,RAW-Dual [2]; [8],0.723
CCOC(=O)NCCCC(=O)NCCc1ccccc1 (library stock concentration (final ~1000-fold dilution): 10 mM),NF-kB SEAP reporter activity,RAW-Dual [2]; agonist: LPS (TLR4) 0.1 ug/mL,1.31
same,NF-kB SEAP reporter activity,RAW-Dual [2]; [6],0.995
same,NF-kB SEAP reporter activity,RAW-Dual [2]; [7],1.17
same,NF-kB SEAP reporter activity,RAW-Dual [2]; [8],1.06
CCOC(=O)NCCCC(=O)NCCc1ccccc1,NF-kB SEAP reporter activity,RAW-Dual [1]; [4],0.961
same,NF-kB SEAP reporter activity,RAW-Dual [1]; [5],0.985
Cc1cccc(C)c1OCC(=O)NC(Cc1ccccc1)C(O)CC(Cc1ccccc1)NC(=O)C(C(C)C)N1CCCNC1=O (stereo unspecified) (library stock concentration (final ~1000-fold dilution): 10 mM),NF-kB SEAP reporter activity,RAW-Dual [2]; agonist: LPS (TLR4) 0.1 ug/mL,1.37
same,NF-kB SEAP reporter activity,RAW-Dual [2]; [6],2.09
same,NF-kB SEAP reporter activity,RAW-Dual [2]; [7],0.396
same,NF-kB SEAP reporter activity,RAW-Dual [2]; [8],1.03
Cc1cccc(C)c1OCC(=O)NC(Cc1ccccc1)C(O)CC(Cc1ccccc1)NC(=O)C(C(C)C)N1CCCNC1=O (stereo unspecified),NF-kB SEAP reporter activity,RAW-Dual [1]; [4],1.63
same,NF-kB SEAP reporter activity,RAW-Dual [1]; [5],2.06
COc1cc2c(cc1NS(=O)(=O)c1ccc(Br)cc1C)n(C)c(=O)n2C (library stock concentration (final ~1000-fold dilution): 10 mM),NF-kB SEAP reporter activity,RAW-Dual [2]; agonist: LPS (TLR4) 0.1 ug/mL,1.73
same,NF-kB SEAP reporter activity,RAW-Dual [2]; [6],1.23
same,NF-kB SEAP reporter activity,RAW-Dual [2]; [7],0.828
same,NF-kB SEAP reporter activity,RAW-Dual [2]; [8],1.08
COc1cc2c(cc1NS(=O)(=O)c1ccc(Br)cc1C)n(C)c(=O)n2C,NF-kB SEAP reporter activity,RAW-Dual [1]; [4],0.973
same,NF-kB SEAP reporter activity,RAW-Dual [1]; [5],1.39
Cl.NCCCC(N)(C(=O)O)C(F)F.O (stereo unspecified) (library stock concentration (final ~1000-fold dilution): 10 mM water),NF-kB SEAP reporter activity,RAW-Dual [2]; agonist: LPS (TLR4) 0.1 ug/mL,0.872
same,NF-kB SEAP reporter activity,RAW-Dual [2]; [6],1.08
same,NF-kB SEAP reporter activity,RAW-Dual [2]; [7],1.07
same,NF-kB SEAP reporter activity,RAW-Dual [2]; [8],0.953
Cl.NCCCC(N)(C(=O)O)C(F)F.O (stereo unspecified),NF-kB SEAP reporter activity,"RAW-Dual [1]; library stock concentration (final ~1000-fold dilution): 10 mM water, cytotoxicity flag (confluency mask): not cytotoxic, agonist: Imiquimod (TLR7) […]",1.01
same,NF-kB SEAP reporter activity,"RAW-Dual [1]; library stock concentration (final ~1000-fold dilution): 10 mM water, cytotoxicity flag (confluency mask): not cytotoxic, agonist: MPLA (TLR4) […]",1.04
CNCCC=C1c2ccccc2CCc2ccccc21.Cl,NF-kB SEAP reporter activity,RAW-Dual [1]; [9],1.94
same,NF-kB SEAP reporter activity,RAW-Dual [1]; [10],1.7
CNCCC=C1c2ccccc2CCc2ccccc21.Cl (library stock concentration (final ~1000-fold dilution): 10 mM),NF-kB SEAP reporter activity,RAW-Dual [3]; agonist: LPS (TLR4) 0.1 ug/mL,1.44
same,NF-kB SEAP reporter activity,RAW-Dual [3]; [6],0.95
same,NF-kB SEAP reporter activity,RAW-Dual [3]; [7],0.632
same,NF-kB SEAP reporter activity,RAW-Dual [3]; [8],0.645
Cc1nn(CC(F)(F)F)cc1Nc1ncc(Br)c(NCc2ccc(S(N)(=O)=O)cc2)n1,NF-kB SEAP reporter activity,RAW-Dual [1]; [4],1.38
same,NF-kB SEAP reporter activity,RAW-Dual [1]; [5],1.33
Cc1nn(CC(F)(F)F)cc1Nc1ncc(Br)c(NCc2ccc(S(N)(=O)=O)cc2)n1 (library stock concentration (final ~1000-fold dilution): 10 mM),NF-kB SEAP reporter activity,RAW-Dual [2]; agonist: LPS (TLR4) 0.1 ug/mL,0.744
same,NF-kB SEAP reporter activity,RAW-Dual [2]; [6],1.28
same,NF-kB SEAP reporter activity,RAW-Dual [2]; [7],1.17
same,NF-kB SEAP reporter activity,RAW-Dual [2]; [8],1.54
Oc1cc(CNC(=S)/C=C/c2cc(O)c(O)c(Br)c2)cc(O)c1O (library stock concentration (final ~1000-fold dilution): 10 mM),NF-kB SEAP reporter activity,RAW-Dual [2]; agonist: LPS (TLR4) 0.1 ug/mL,3.51
same,NF-kB SEAP reporter activity,RAW-Dual [2]; [6],2.77
CC(C)(C)NCC(O)COc1nsnc1N1CCOCC1.O=C(O)/C=C\C(=O)O (stereo unspecified) (library stock concentration (final ~1000-fold dilution): 10 mM),NF-kB SEAP reporter activity,RAW-Dual [2]; agonist: LPS (TLR4) 0.1 ug/mL,1.25
same,NF-kB SEAP reporter activity,RAW-Dual [2]; [6],0.888
same,NF-kB SEAP reporter activity,RAW-Dual [2]; [7],1.26
same,NF-kB SEAP reporter activity,RAW-Dual [2]; [8],1.08
CC(C)(C)NCC(O)COc1nsnc1N1CCOCC1.O=C(O)/C=C\C(=O)O (stereo unspecified),NF-kB SEAP reporter activity,RAW-Dual [1]; [4],0.89
same,NF-kB SEAP reporter activity,RAW-Dual [1]; [5],0.998
